Assay results: PubChem BioAssay AID2546 (National Center for Advancing Translational Sciences (NCATS), 2010)
Among all 310,000 compounds or so, about 11,000 (3.5%) were called active. The shares of active, inactive and inconclusive entries below differ from those in the screen. The call rests on the fitted dose curve; in most records, active means well fitted inhibition curve with a large enough effect; inconclusive means small, poorly fitted or top-dose-only effect, or effect the other way; inactive means flat fitted curve, though single readings scatter. No potency is given beside an inconclusive call; the fits are too rough.

Assay: VP16 counterscreen qHTS for inhibitors of ROR gamma transcriptional activity;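 further: Gal4-VP16 expression switched on by copper sulfate through the metallothionein promoter; nearly all actives have a fitted effect of over 50% in size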
Conditions: Drosophila S2 Gal4-VP16 UAS-luciferase, luminescence, 20 h; activity, negative = inhibition: at 53.6 µM (top of the series)
Source text: NIH Molecular Libraries Probe Production Network [MLPCN]
NIH Chemical Genomics Center [NCGC]
Assay Provider: Dan Littman, New York University
The retinoic acid-related orphan receptor (ROR) gamma is a transcription factor that has a central role in the differentiation of Th17 cells, a subset of T helper cells that secrete the inflammatory cytokines IL-17, IL-17F, and IL-22. Th17 cells have been implicated in graft versus host disease, autoimmune disease and asthma. ROR gamma is induced in naive T helper cells in the presence of TGF-beta combined with IL-6, IL-21, or IL-23, and thereafter directs the expression of the Th17 lineage cytokines. To identify nonspecific inhibitors, a Drosophila Schneider cell line was stably transfected with two vectors: a gene expressing a fusion of the Gal4 DNA binding domain and VP16 transactivation domain under the control of the metallothionine promoter and a Photinus luciferase reporter regulated by the Gal4 binding site enhancer, UAS. […] Small molecule inhibitors that inhibit components common to the RORgt and VP16 assays, such as the Gal4 DNA binding domain or the UAS luciferase reporter, will be active in both assays and thus scored as nonspecific.
For screening, 600 cells in 4 uL/well were dispensed into white solid 1536-well plates (Grenier) using a solenoid-based dispenser. Following transfer of 23 nL compound or DMSO vehicle by a pin tool, the plates were incubated 1 hr at ambient temperature, and 1 uL/well copper sulfate (700 uM final concentration) was added. The plates were centrifuged 15 s at 1000 RPM and incubated 20 hr at ambient temperature. After addition of 1.5 uL Photinus luciferase detection reagent, the plates were incubated 10 min at ambient temperature and then read by a ViewLux (Perkin Elmer) to detect luminescence.
On the % scale 0 is the no-effect control and ±100 the full control effect; potency means the concentration at half of the fitted maximal effect; tags describe the fitted curve by direction and shape.

Row | SMILES | Potency | activity, negative = inhibition
1 | O=C(Nc1ccc2ccccc2c1)c1cccc([N+](=O)[O-])c1 | inactive | –
2 | CCn1c(CN2CCN(c3cccc(C)c3C)CC2)n[nH]c1=S | active: 7.08 µM | –
3 | Cc1ccc(NN2C(=O)C=C(c3ccccc3)C2=O)cc1 | active: 5.01 µM | –
4 | CCc1ccccc1NC(=S)N1CCN(c2ccccn2)CC1 | inconclusive [inhibitor, single point] | –
5 | O=S(=O)(c1cccc(-c2n[nH]c(=S)n2C2CCCC2)c1)N1CCOCC1 | inactive | –
6 | CNC(=O)Nc1cccc(-c2ccnc(C)n2)c1 | inactive | –
7 | Cc1ccccc1Cn1nc(C)c(NC(=O)c2noc3c2CCc2ccccc2-3)c1C | inconclusive [inhibitor, single point] | –
8 | Cc1sc2nc(CN(C(=O)NC3CCCCC3)C3CCCCC3)[nH]c(=O)c2c1C | inconclusive [inhibitor, single point] | –
9 | Cn1c(=O)c2c(ncn2CCOc2ccc(Br)cc2)n(C)c1=O | inconclusive [inhibitor, single point] | –
10 | COC(=O)c1c(-c2ccc(C)cc2)csc1NC(=O)Cc1ccc(OC)c(OC)c1 | inconclusive [inhibitor, single point] | –
11 | CCCC(=O)NC(=S)Nc1ccccc1C(=O)OC | inconclusive [inhibitor, single point] | –
12 | COc1ccc(/C=C/C(=O)c2c(O)ccc3c(C)cc(=O)oc23)cc1 | inconclusive [inhibitor, single point] | –
13 | O=C(Cc1sc(Nc2ccccc2)nc1-c1ccccc1)NCc1ccccc1 | inconclusive [inhibitor, single point] | –
14 | Cc1cc(C(=O)COC(=O)c2ccc[nH]c2=O)c(C)n1C | inconclusive [inhibitor, partial curve, poor fit] | –
15 | O=C1[C@@H]2Cc3c([nH]c4ccccc34)C(c3cccc(Br)c3)N2C(=O)CN1C1CCN(Cc2ccccc2)CC1 (some centres undefined) | inconclusive [inhibitor, single point] | –
16 | O=C(NC(=S)Nc1ccc(Oc2ccc(Cl)cc2)cc1)c1ccccc1 | active: 7.94 µM | –
17 | COc1cc(/C=C2/C(=N)N3C=CSC3=NC2=O)ccc1OCCCOc1c(C)cccc1C | inconclusive [inhibitor, single point] | –
18 | O=C(CSc1nc2ccccc2s1)Nc1ccc(Cl)c(S(=O)(=O)N2CCOCC2)c1 | inconclusive [inhibitor, single point] | –
19 | Cc1cccc(-n2ncc3c2CCCC3NC(=O)C2CCOCC2)c1C (centres undefined) | inconclusive [inhibitor, single point] | –
20 | COc1ccc(/C=C2\SC(=O)N(CCC(=O)NC3CCS(=O)(=O)C3)C2=O)cc1 (centres undefined) | inconclusive [inhibitor, partial curve] | –
21 | CCC(/C=C1\Sc2ccc(OC)cc2N1CC)=C\c1sc2ccc(OC)cc2[n+]1CCCS(=O)(=O)[O-] | inconclusive [inhibitor, single point] | –
22 | COc1ccc(-c2c(C(=O)O)c(C(=O)O)c3n2CCC3)cc1 | inconclusive [inhibitor, single point] | –
23 | COc1ccc(N=Nc2cc(C)ccc2O)cc1 | inconclusive [inhibitor, single point] | –
24 | COc1cc(C2Nc3ccc4ncccc4c3C3=C2C(=O)CCC3)cc(OC)c1O (centres undefined) | inactive | –
25 | CC(=O)NC(=S)Nc1ccc(-c2nc3ccc(C)cc3s2)cc1 | active: 1.78 µM | –

Row | SMILES | Potency | activity, negative = inhibition
26 | CCOc1ccccc1N1CCN(C(=O)C2c3ccccc3Oc3ccccc32)CC1 | inactive | –
27 | CC(C)(C)NC(=O)C(c1ccc(F)cc1)N(Cc1ccccc1Cl)C(=O)c1ccn[nH]1 (centres undefined) | inactive | –
28 | Cc1noc(NC(=O)c2ccc(Cl)c(Cl)c2)c1Cl | active: 17.8 µM | –
29 | O=C(Nc1ccc2c(c1)CCC2)Nc1ccccc1Cl | inconclusive [activator, full curve] | –
30 | CCCCNC(=O)CCC(=O)NNc1nc2ccccc2c2nc(C)nn12 | inconclusive [activator, single point] | –
31 | CC1(c2ccc(O)cc2)NC(=O)N(c2ccccc2)N1 (centres undefined) | inactive | –
32 | S=c1[nH]nc(-c2ccc3c(c2)OCO3)n1-c1ccccc1 | active: 11.2 µM | –
33 | CCCCC[C@H](O)C=C[C@H]1[C@H](O)CC(=O)[C@H]1CCCCCCC(=O)O | inconclusive [activator, single point] | –
34 | C/C(=N\NC(=O)c1c(Br)cnn1C)c1ccc(NC(=O)c2ccc(F)cc2)cc1 | inactive | –
35 | CC(=O)NC(Cc1cnc[nH]1)C(=O)O (centres undefined) | inactive | –
36 | CCCn1nnc(NC(=S)NC(=O)c2cccs2)n1 | active: 5.62 µM | –
37 | Cc1nc(C)c(C(=O)NCc2ccccc2Cl)o1 | inconclusive [inhibitor, single point] | –
38 | O=C1C=CC2C(c3ccc4c(c3)OCO4)CC1N2Cc1ccccc1 (centres undefined) | inactive | –
39 | Cc1nc(C)c(C(=O)Nc2ccc(Oc3ccccc3)cc2)o1 | inconclusive [inhibitor, single point] | –
40 | CC(C)NC(=S)N/N=C/c1ccc(N2CCOCC2)cc1 | active: 4.47 µM | –
41 | CC1CC(C)CN(c2ncnc3c2cnn3Cc2ccc(Cl)cc2)C1 (centres undefined) | inactive | –
42 | CN1CCc2c(sc(N)c2C(=O)c2ccc(Cl)cc2)C1 | inconclusive [activator, single point] | –
43 | c1ccc2[nH]c(-c3nc4ccccc4[nH]3)nc2c1 | active: 10 µM | –
44 | Nc1nc(-c2ccc3ccccc3c2)cs1 | inconclusive [activator, single point] | –
45 | Cc1ccc(N=c2oc3cc(O)ccc3cc2C(N)=O)cc1 | active: 0.891 µM | –
46 | CC(C)Cc1ccc(/C=C/C(=O)N2CCOCC2)cc1 | inconclusive [activator, single point] | –
47 | CCOC(=O)C1=C(C)NC(=S)N(C=O)C1c1ccccc1 (centres undefined) | inconclusive [inhibitor, single point] | –
48 | CN1CCc2c(OCC(=O)NC3CCCCC3)cccc2C1=O | inactive | –
49 | C=CCN(CC=C)C(=S)NC(=O)Cc1cccc2ccccc12 | active: 0.794 µM | –
50 | CCC1S/C(=N/N=C/c2ccco2)N(Cc2ccc(F)cc2)C1=O (centres undefined) | inactive | –

Row | SMILES | Potency | activity, negative = inhibition
51 | COc1ccc(Br)cc1-c1noc(-c2ccccc2F)n1 | inactive | –
52 | COC(=O)CNc1nc(Cl)nc(NC2CCCCC2)n1 | inconclusive [activator, full curve, poor fit] | –
53 | Cc1nn(Cc2ccccc2)c(Cl)c1C(=O)NCCc1ccccc1 | inconclusive [activator, single point] | –
54 | Clc1ccc(C2=Nn3c(nnc3-c3n[nH]c4c3CCC4)SC2)cc1Cl | inconclusive [inhibitor, single point] | –
55 | CC1=NN(C(N)=S)C(=O)C1N=Nc1ccc(F)cc1 (centres undefined) | active: 1.26 µM | –
56 | Cc1cc2ccccn2c1C(=O)Nc1cccc(Cl)c1 | inconclusive [activator, single point] | –
57 | COCCCNC(=O)/C=C/c1ccc(Cl)cc1Cl | inconclusive [inhibitor, single point] | –
58 | CC(C)COc1ccc(C(=O)Nc2ncn[nH]2)cc1 | active: 3.55 µM | –
59 | Cc1ccc(C)c(S(=O)(=O)NCC(=O)Nc2sc3c(c2C(N)=O)CCC(C)C3)c1 (centres undefined) | inconclusive [inhibitor, single point] | –
60 | COCCn1c(C)cc(C(=O)COC(=O)CNC(=O)c2ccccc2)c1C | inconclusive [activator, single point] | –
61 | COc1ccc(NC(=S)Nc2ccccc2SC)c(OC)c1 | inconclusive [inhibitor, partial curve] | –
62 | c1ccc(CCn2nnnc2C(c2cccnc2)N2CCN(c3nc4ccccc4s3)CC2)cc1 (centres undefined) | inconclusive [inhibitor, single point] | –
63 | CCOC(=O)c1c(C)n(-c2ccc(C)cc2)c2ccc(OCC(O)CNCCCO)cc12 (centres undefined) | inconclusive [inhibitor, single point] | –
64 | CN(C)C(=O)C1C2NC(=S)N(c3ccc(Cl)cc3)C1(C)Oc1ccc(Cl)cc12 (centres undefined) | inconclusive [inhibitor, single point] | –
65 | CCC(Oc1ccccc1)C(=O)N(Cc1ccccc1)c1ccccn1 (centres undefined) | inconclusive [activator, single point] | –
66 | C/C(CCN1CCCc2nc(C)c(C)cc21)=N\O[C@@H](C)c1cn([C@@H]2COC[C@@H]2O)nn1 | – | inactive: 1.18% [at 10 µM]
67 | Fc1ccc(-c2noc(C3CCN(Cc4cccnc4)CC3)n2)cc1 | inconclusive [inhibitor, single point] | –
68 | O=C(c1csnn1)N1CCC2(CC1)CN(c1ccccn1)C2 | inactive | –
69 | CCOc1cc(CNCC(C)C)cc(Cl)c1OCc1ccccc1 | inconclusive [inhibitor, single point] | –
70 | CC(C)(C)c1cc(NC(=O)CCl)n(-c2ccccc2)n1 | inconclusive [inhibitor, single point] | –
71 | Cc1cccc(-c2nnc(SCC(=O)N3c4ccccc4CCc4ccccc43)n2C)c1 | inactive | –
72 | O=C(/C=C/c1ccc(F)cc1)Nc1cccc(S(=O)(=O)Nc2cccc(C(F)(F)F)c2)c1 | inconclusive [inhibitor, single point] | –
73 | Cc1ccc(C)c(N2CCN(C(=S)Nc3ccc4nc(N5CCN(C)CC5)cc(C)c4c3)CC2)c1 | inconclusive [inhibitor, single point] | –
74 | Cc1ccc(-n2nnc3c(SCC(=O)NCC4CCCO4)ncnc32)cc1 (centres undefined) | inconclusive [inhibitor, single point] | –
